Measured values taken from PubChem BioAssay AID924 (National Center for Advancing Translational Sciences (NCATS), 2007).
Out of some 130,000 compounds screened, about 1,200 (0.92%) were called active. Inconclusive results, whose numbers are uncertain, are shown with a selection of clear calls. Calls follow the shape of the dose curve; as a rule, active = well fitted cell-killing curve with a large enough effect; inconclusive = small, poorly fitted or top-dose-only effect; inactive = no such curve, though single readings can be large or run the other way. Where the call is inconclusive, the potency comes from a doubtful curve fit.

experiment: qHTS Screen for Compounds that Selectively Target Cancer Cells with p53 Mutations: Cytotoxicity of p53ts Cells at the Permissive Temperature; details: H1299-p53A138V at 32C, ATP luminescence viability, 24 h; activity change, negative = cytotoxicity: at 46.1 µM (top of the series); also: nearly all actives have a fitted effect of over 55% in size
Summary of the method: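 ATP-content luminescence (ATPlite) read-out after 24 h compound exposure at 32C in H1299-p53A138V cells (600/well). Tested up to 46 uM. Normalized to DMSO (0%) and 100 uM tamoxifen (100% killing); Hill-fit AC50.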
Potency is read from the fitted curve at half-maximal effect; tags tell the direction and shape of the fitted curve.

Row | Structure (SMILES) | Potency | activity change, negative = cytotoxicity
1 | CCOC(=O)C(C)Oc1cccc2c(=O)n(CC(=O)NCc3ccco3)ccc12 (stereo not given) | inconclusive: 12.6 µM [cytotoxic, partial curve] | –
2 | COCC(=O)Nc1ccc(-c2cn3cccnc3n2)cc1 | inconclusive: 12.6 µM [cytotoxic, partial curve] | –
3 | CCn1c(=O)cc(OCC(=O)NCCCN2CCN(c3cccc(Cl)c3)CC2)c2ccccc21 | inconclusive: 31.6 µM [cytotoxic, single point] | –
4 | CC(C)c1ccc(C(=O)Nc2ccc(N3CCOCC3)cc2)cc1 | inactive | –
5 | COCC(=O)/C=C1\Sc2ccccc2N1C | inactive | –
6 | CC(=Nc1ccc(O)cc1)c1sc2ccccc2c1O | inconclusive: 12.6 µM [cytotoxic, single point] | –
7 | COC(=O)c1[nH]c2cc(OC)c(OC)cc2c1NC(=O)c1cccc(OC)c1 | inconclusive: 12.6 µM [cytotoxic, partial curve] | –
8 | CCc1ccc(-c2nc(CN3CCCC(C(=O)NCc4ccccc4Cl)C3)c(C)o2)cc1 (stereo not given) | inconclusive: 31.6 µM [cytotoxic, single point] | –
9 | CCN(CC)S(=O)(=O)c1cc(C(=O)NC2CCCCC2)ccc1C | inconclusive: 10 µM [cytotoxic, partial curve] | –
10 | CCOC(=O)NC(=O)CSc1nc(C)cc(C)c1C#N | active: 5.01 µM | –
11 | Cc1ccc(NC(=O)N(Cc2cn(C)c3ccccc23)C2CCCCC2)cc1C | inconclusive: 6.31 µM [cytotoxic, partial curve] | –
12 | Cc1ccccc1C(=O)Nc1cccc(C(=O)OCc2cc(=O)n3c4c(sc3n2)CCCC4)c1 | inactive | –
13 | O=C(Nc1ccc2c(c1)OCO2)c1noc2c1CCCCC2 | active: 15.8 µM | –
14 | COc1ccc(-c2nc(Cn3c(SCc4ccc(C)cc4)nc4cccnc43)c(C)o2)cc1OC | inconclusive: 15.8 µM [cytotoxic, partial curve, poor fit] | –
15 | O=S(=O)(c1ccccc1)c1nc(-c2ccc(Cl)cc2Cl)oc1N1CCCCCC1 | inactive | –
16 | Cc1cc(C)cc(N2CCn3c2nc2c3c(=O)n(Cc3ccc(Cl)cc3)c(=O)n2C)c1 | inactive | –
17 | CCCS(=O)(=O)c1ncc(Cl)c(C(=O)Nc2scc(-c3ccccc3)c2C(=O)OCC)n1 | inconclusive: 25.1 µM [cytotoxic, single point] | –
18 | COc1ccc(CCN2C(=O)c3oc4ccc(F)cc4c(=O)c3C2c2ccc(C(C)(C)C)cc2)cc1 (stereo not given) | inactive | –
19 | CCOC(=O)CSc1nnc2n1C(C)(C)Cc1ccccc1-2 | inactive | –
20 | COc1cccc(C(=O)N(Cc2cc3cc(C)ccc3[nH]c2=O)CC2CCCO2)c1 (stereo not given) | inactive | –
21 | CCOc1ccc2nc(N3CCC(C(=O)N4CCN(C(=O)c5ccco5)CC4)CC3)sc2c1 | inconclusive: 12.6 µM [cytotoxic, partial curve] | –
22 | CC(C)(C)CC(C)(C)NC(=O)CSCC(=O)Nc1ccc2ccccc2c1 | inconclusive: 11.2 µM [cytotoxic, partial curve, poor fit] | –
23 | CC(C)c1c(O)ccc2c1CCC1C(C)(C)CCC[C@@]21C (stereo not given in full) | inconclusive: 31.6 µM [cytotoxic, single point] | –
24 | O=C(CSc1nc2ccccc2o1)Nc1nc2c(s1)CCCC2 | inconclusive: 12.6 µM [cytotoxic, partial curve] | –

Row | Structure (SMILES) | Potency | activity change, negative = cytotoxicity
25 | CCc1ccccc1NC(=O)CSc1ncc2c(n1)-c1ccccc1N(Cc1ccc(C)cc1)S2(=O)=O | inactive | –
26 | CCc1ccc(-n2nc(CO)c(C(=O)NCc3ccccn3)n2)cc1 | inconclusive: 10 µM [cytotoxic, partial curve] | –
27 | Cc1cc(NC(=O)CSc2cn(CCNC(=O)c3ccc(Cl)cc3)c3ccccc23)no1 | inactive | –
28 | O=C(c1ccco1)c1cn(CC(=O)N2CCCc3ccccc32)c2ccccc12 | inactive | –
29 | COc1ccc(NC(=O)CC2C(=O)N(c3ccc(C)cc3)C(=O)N2CCc2ccccc2)cc1 (stereo not given) | inactive | –
30 | CCC(=O)Nc1cc2nn(-c3ccccc3)nc2cc1Cl | inconclusive: 3.16 µM [cytotoxic, full curve] | –
31 | CCN(CC)C(=O)C1CCCN(C/C(C)=C/c2ccccc2)C1 (stereo not given) | inactive | –
32 | NC(=O)N/N=C/c1ccc([N+](=O)[O-])o1 | inconclusive: 12.6 µM [cytotoxic, single point] | –
33 | Cc1ccccc1NC(=O)c1sc2nc(-c3ccncc3)ccc2c1N | inconclusive: 20 µM [cytotoxic, single point] | –
34 | CC(=O)Oc1c(C)cc(O)c2ccccc12 | inconclusive: 31.6 µM [cytotoxic, single point] | –
35 | O=C(Nc1ccccc1)N1CCc2ccccc21 | inconclusive: 14.1 µM [cytotoxic, single point] | –
36 | Oc1ccc(Nc2nc(N3CCCC3)c3ccccc3n2)cc1 | inconclusive: 31.6 µM [cytotoxic, single point] | –
37 | N/C(=N\O)c1ccc(NC(=O)c2cccs2)cc1 | inconclusive: 15.8 µM [cytotoxic, single point] | –
38 | Cc1ccc(C(=O)Nc2nc3ccc(S(C)(=O)=O)cc3s2)s1 | active: 10 µM | –
39 | O=c1c2ccccc2nnn1CSc1nnc(-c2cccs2)n1Cc1ccccc1 | inconclusive: 25.1 µM [cytotoxic, single point] | –
40 | CCN1/C(=C2\C(=O)N(C)C(=S)N2C)C=Cc2ccccc21 | inconclusive: 0.0794 µM [cytotoxic, full curve, poor fit] | –
41 | O=Nc1c(-c2c(O)[nH]c3cc(Br)ccc23)[nH]c2ccccc12 | active: 12.6 µM | –
42 | Cc1ccc(C(=O)N2CCc3cc(CNC(=O)COc4ccccc4)ccc32)cc1 | inconclusive: 17.8 µM [cytotoxic, single point] | –
43 | O=S(=O)(c1cccc(C(F)(F)F)c1)n1c(/C=C/c2ccccc2)nc2ccccc21 | active: 12.6 µM | –
44 | COCCCNC(=O)CSc1c2c(nc3ccc(Cl)cc13)CCCC2 | inconclusive: 31.6 µM [cytotoxic, single point] | –
45 | COc1ccccc1N1CCN(C(=O)c2cn(-c3ccccc3)nc2-c2cccnc2)CC1 | inconclusive: 25.1 µM [cytotoxic, single point] | –
46 | Cc1ccc(NC(=O)/C(C#N)=C/c2ccc(C)o2)cc1 | inconclusive: 12.6 µM [cytotoxic, partial curve] | –
47 | CC(C)CCNC(=O)c1ccc2c(c1)NC(=O)C(CS(=O)(=O)Cc1cccc(Br)c1)N2 (stereo not given) | inconclusive: 12.6 µM [cytotoxic, single point] | –
48 | CSCCNC(=O)c1ccc(C(C)(C)C)cc1 | active: 10 µM | –

Row | Structure (SMILES) | Potency | activity change, negative = cytotoxicity
49 | CCCCN(CCCC)CC(O)Cn1cc(/C=C/C(=O)c2ccccc2)c2ccccc21 (stereo not given) | inconclusive: 31.6 µM [cytotoxic, single point] | –
50 | CCOCCCNC(=O)C1CCC(CNS(=O)(=O)c2ccc(NC(C)=O)cc2)CC1 (stereo not given) | inconclusive: 0.0063 µM [cytotoxic, full curve, poor fit] | –
51 | Cc1cc2n(n1)C(c1ccccc1)Nc1ccccc1-2 (stereo not given) | inactive | –
52 | CCN(CC)S(=O)(=O)c1nnc(NC(=O)COc2ccc(Cl)cc2)s1 | inconclusive: 2 µM [cytotoxic, full curve, poor fit] | –
53 | Cc1ccc(CNC(=O)c2ccc(Cn3c(SCc4ccccc4F)nc4cccnc43)cc2)cc1 | inconclusive: 31.6 µM [cytotoxic, single point] | –
54 | C[C@@H](c1ccccc1)N1C(=O)[C@H]2[C@H]3[C@H](O)[C@H](O)C/C(=N/NC(=O)OCc4ccccc4)[C@H]3CC[C@@H]2C1=O | – | inactive: 2.96% [at 9.22 µM]
55 | CCc1ccc2nc(N3CCC(C(=O)NCCC(C)C)CC3)sc2c1 | inconclusive: 10 µM [cytotoxic, partial curve] | –
56 | CCOC(=O)c1cnc(N(C)C)nc1SC(=N)N | – | inactive: -1.28% [at 9.22 µM]
57 | COc1cccc2cc(-c3nc4ccc(C)cc4[nH]3)c(=O)oc12 | inconclusive: 5.01 µM [cytotoxic, full curve] | –
58 | CN(C)c1ccc(-c2nc(N(C)Cc3ccco3)c3ccccc3n2)cc1 | inconclusive: 12.6 µM [cytotoxic, partial curve] | –
59 | NNc1nncc2ccccc12 | active: 7.94 µM | –
60 | O=C(Nc1ccc(CN2CCOCC2)cc1)c1cccc(F)c1 | inconclusive: 7.94 µM [cytotoxic, partial curve] | –
61 | COc1cccc(-c2nc(C(N)=O)c3[nH]c(=O)n(-c4cccc(Cl)c4)c3n2)c1OC | inactive | –
62 | CC(C)c1ccc(C(=O)CC2(O)C(=O)N(CCc3ccccc3)c3ccc(Cl)cc32)cc1 (stereo not given) | inconclusive: 25.1 µM [cytotoxic, single point] | –
63 | O=C(CSc1nnc2[nH]c(=O)cc(-c3ccccc3)n12)Nc1ccccc1C(F)(F)F | inconclusive: 3.55 µM [cytotoxic, partial curve, poor fit] | –
64 | COc1ccc(NC(=O)c2cccs2)cc1 | inconclusive: 35.5 µM [cytotoxic, single point] | –
65 | CCC(=O)[C@@]1(O)C(=O)N2C(=C3C(=O)OCCC31)N(Cc1ccccc1)C(C)=C(C(=O)OC)C2c1ccccc1 (stereo not given in full) | – | inactive: 0.855% [at 9.22 µM]
66 | COc1ccc(C(=O)c2c[nH]c3ccccc23)cc1 | active: 7.94 µM | –
67 | COc1cc(C2C(C(=O)Nc3ccccc3C)=C(C)Nc3nc(SCc4cc(C)ccc4C)nn32)ccc1O (stereo not given) | inconclusive: 25.1 µM [cytotoxic, single point] | –
68 | CCCc1nn2c(=O)cc(COC(=O)c3ccc(NC(=O)COc4ccccc4F)cc3)nc2s1 | inactive | –
69 | Cc1ccccc1Nc1nc(CSc2nnc(-c3ccoc3C)n2C)cs1 | inactive | –
70 | COC(=O)Cc1ccc(NC(=O)c2cccs2)cc1 | inconclusive: 31.6 µM [cytotoxic, single point] | –
